Each structure is given as a SMILES string. Some of the results follow.

The values that follow come from the antibiotic and cytotoxicity screens of Wong et al. (2023).

The experiment concerns S. aureus RN4220. The experiment is described as follows: growth inhibition call (relative growth <= 0.2). The following applies: 50 µM.
Turning to `C[C@@H]1CN([C@@H](C)CO)C(=O)c2cc(NC(=O)CCN3CCOCC3)ccc2O[C@@H]1CN(C)CC1CC1`, the growth inhibition call was “inactive”.

In the case of `NNC(=O)c1c(O)c2c([nH]c1=O)CCCC2`, the growth inhibition call is “inactive”.

Consider `CCCCCCCCCCCCCCCCOP(=O)([O-])OCC[N+](C)(C)C`, for which the growth inhibition call was “inactive”.

Consider `Cc1ccc(S(=O)(=O)N(C)C[C@@H]2OCCCC[C@H](C)Oc3ccc(NC(=O)Cc4ccccc4)cc3C(=O)N([C@@H](C)CO)C[C@H]2C)cc1`, for which the growth inhibition call is “inactive”.

Take `CC(C)(O)C#Cc1ccc([C@@H]2[C@@H](CO)N3CCCCN(S(C)(=O)=O)C[C@@H]23)cc1`: the growth inhibition call is “inactive”.

Take `COc1ccc(CN(C)C[C@@H]2Oc3c(NC(=O)Nc4ccc(C(F)(F)F)cc4)cccc3C(=O)N([C@H](C)CO)C[C@@H]2C)cc1`: the growth inhibition call is “inactive”.

Turning to `Cc1cc(O)c2c(c1)Cc1cccc(O)c1C2=O`, the growth inhibition call is “inactive”.

Regarding `NCC[C@@H]1CC[C@@H](NC(=O)Nc2ccc(F)cc2)[C@H](CO)O1`, the growth inhibition call was “inactive”.

Turning to `C[C@H]1CCCCO[C@@H](CN(C)C(=O)Nc2cccc3ccccc23)[C@@H](C)CN([C@@H](C)CO)C(=O)c2cc(NS(=O)(=O)c3ccc(F)cc3)ccc2O1`, the growth inhibition call is “inactive”.

Take `COc1ccccc1C#Cc1ccc2c(c1)O[C@H](CN(C)C(C)=O)[C@@H](C)CN([C@@H](C)CO)S2(=O)=O`: the growth inhibition call is “inactive”.

Turning to `C[C@H]1CCCCO[C@H](CN(C)C(=O)c2ccccc2)[C@@H](C)CN([C@@H](C)CO)C(=O)c2cc(NC(=O)C3CCCCC3)ccc2O1`, the growth inhibition call is “inactive”.

For `Cc1ccc(S(=O)(=O)N2C[C@@H](O)COC[C@H]3O[C@H](CC(=O)NCCN4CCCCC4)CC[C@@H]32)cc1`, the growth inhibition call was “inactive”.
